From the supplement of paper PMC4967469
The IC50 comes from the fitted curve, where viability falls to half of the control; a fit beyond the top or the lowest dose is shown as a bound at that dose. AUC sums up the same curve from the lowest dose to the 256-fold higher top dose; it is 1 without any effect and falls as sensitivity rises. For part of these data: Any top dose called inferred is not printed in the source and was worked back from the curve model. For part of these data: An entry number marks a drug with two screens in the source, which often give different values.

Key:
Experiment in all cases: Viability of human cancer cell lines after 72 h of drug (GDSC screen)
[1] = compound: C/C(O)=C(\C#N)C(=O)Nc1cc(Br)ccc1Br [LFM-A13]; conditions: top dose 16 µM; top dose inferred
Method: (§1)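 Human cancer cell lines in 384-well plates, medium with 10% serum, drug for 72 h over a 256-fold dose range (nine 2-fold or five 4-fold steps up to the top dose). Adherent lines were fixed and stained with the nucleic acid dye Syto60, suspension lines read with resazurin; signal relative to control wells, capped at 0 and 100%. One two-parameter sigmoid per drug and line, fitted in a mixed model over all curves with the slope shared within a line.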

[2] = compound: CC(C)c1ccccc1Cc1cc(C(=O)Nc2ccc(S(=O)(=O)c3ccccc3C(C)(C)C)cc2)c(O)c(O)c1O [TW-37]; conditions: top dose 5 µM
Method: as §1

[3] = compound: CC(O)(CS(=O)(=O)c1ccc(F)cc1)C(=O)Nc1ccc(C#N)c(C(F)(F)F)c1 [Bicalutamide]; conditions: top dose inferred
Method: as §1

[4] = compound: CCNC(=O)c1noc(-c2cc(C(C)C)c(O)cc2O)c1-c1ccc(CN2CCOCC2)cc1 [AUY922]; conditions: top dose 0.256 µM; top dose inferred
Method: as §1

[5] = compound: Cc1ccc(Nc2cc(-c3cccc(N4C(=O)c5ccccc5C4=O)c3)ncn2)cc1NS(C)(=O)=O [KIN001-270]; conditions: top dose 20 µM; top dose inferred
Method: as §1

[6] = compound: Cc1cn(-c2cc(NC(=O)c3ccc(C)c(Nc4nccc(-c5cccnc5)n4)c3)cc(C(F)(F)F)c2)cn1 [Nilotinib]; conditions: top dose 2 µM
Method: as §1

[7] = compound: NC(=O)c1cccc(-c2cc(Nc3ccc(OC(F)(F)F)cc3)ncn2)c1 [GNF-2]; conditions: top dose 1.28 µM; top dose inferred
Method: as §1

[8] = compound: Nc1ccn([C@@H]2O[C@H](CO)[C@@H](O)C2(F)F)c(=O)n1 [Gemcitabine]; conditions: top dose 1.024 µM
Method: as §1

[9] = compound: O=S(=O)(c1ccccc1)N(CC(F)(F)F)c1ccc(C(O)(C(F)(F)F)C(F)(F)F)cc1 [T0901317]; conditions: top dose 10.24 µM; top dose inferred
Method: as §1

[10] = compound: S=C(NCc1ccc2c(c1)OCO2)N1CCN(c2ncnc3c2oc2ccccc23)CC1 [MP470]; conditions: top dose 20 µM; top dose inferred
Method: as §1

[11] = top dose 1.024 µM, screen: GDSC drug entry 150
[12] = top dose 10 µM, screen: GDSC drug entry 1502

| Cell Line | AUC [1] | IC50 [1] | AUC [2] | IC50 [2] | AUC [3, 11] | IC50 [3, 11] | AUC [3, 12] | IC50 [3, 12] | AUC [4] | IC50 [4] | AUC [5] | IC50 [5] | AUC [6] | IC50 [6] | AUC [7] | IC50 [7] | AUC [8] | IC50 [8] | AUC [9] | IC50 [9] | AUC [10] | IC50 [10] |
| --- | --- | --- | --- | --- | --- | --- | --- | --- | --- | --- | --- | --- | --- | --- | --- | --- | --- | --- | --- | --- | --- | --- |
| 8-MG-BA (glioma, adherent) | 0.95 | > 16000 nM | 0.445 | 223 nM | 0.988 | > 1020 nM | 0.976 | > 10000 nM | 0.521 | 18.2 nM | 0.944 | > 20000 nM | 0.982 | > 2000 nM | 0.988 | > 1280 nM | 0.158 | 6.26 nM | 0.98 | > 10200 nM | 0.933 | > 20000 nM |
| 697 (lymphoblastic leukaemia, suspension) | 0.968 | > 16000 nM | 0.345 | 128 nM | 0.992 | > 1020 nM | 0.987 | > 10000 nM | 0.506 | 16.5 nM | 0.919 | > 20000 nM | 0.93 | > 2000 nM | 0.991 | > 1280 nM | 0.15 | 7.44 nM | 0.944 | > 10200 nM | 0.556 | 1720 nM |
| A3-KAW (B-cell lymphoma, suspension) | 0.956 | > 16000 nM | 0.518 | 346 nM | 0.993 | > 1020 nM | 0.97 | > 10000 nM | 0.594 | 27.3 nM | 0.606 | 2300 nM | 0.993 | > 2000 nM | 0.986 | > 1280 nM | 0.128 | 6.3 nM | 0.862 | 6000 nM | 0.117 | 111 nM |
| A4-Fuk (B-cell lymphoma, suspension) | 0.891 | > 16000 nM | 0.508 | 329 nM | 0.98 | > 1020 nM | 0.975 | > 10000 nM | 0.497 | 15.7 nM | 0.917 | > 20000 nM | 0.919 | > 2000 nM | 0.985 | > 1280 nM | 0.135 | 4.22 nM | 0.968 | > 10200 nM | 0.965 | > 20000 nM |
| A101D (melanoma, adherent) | 0.958 | > 16000 nM | 0.367 | 123 nM | 0.981 | > 1020 nM | 0.957 | > 10000 nM | 0.546 | 22 nM | 0.977 | > 20000 nM | 0.897 | > 2000 nM | 0.968 | > 1280 nM | 0.23 | 8.57 nM | 0.979 | > 10200 nM | 0.979 | > 20000 nM |
| A253 (head and neck, adherent) | 0.934 | > 16000 nM | 0.48 | 277 nM | 0.988 | > 1020 nM | 0.985 | > 10000 nM | 0.637 | 37.7 nM | 0.983 | > 20000 nM | 0.989 | > 2000 nM | 0.989 | > 1280 nM | 0.472 | 53.8 nM | 0.97 | > 10200 nM | 0.952 | > 20000 nM |
| A388 (skin, adherent) | 0.929 | > 16000 nM | 0.623 | 719 nM | 0.982 | > 1020 nM | 0.973 | > 10000 nM | 0.532 | 19.9 nM | 0.949 | > 20000 nM | 0.978 | > 2000 nM | 0.956 | > 1280 nM | 0.187 | 6.22 nM | 0.978 | > 10200 nM | 0.952 | > 20000 nM |
| A498 (kidney, adherent) | 0.929 | > 16000 nM | 0.724 | 1900 nM | 0.959 | > 1020 nM | 0.972 | > 10000 nM | 0.974 | > 256 nM | 0.975 | > 20000 nM | 0.976 | > 2000 nM | 0.888 | > 1280 nM | 0.971 | > 1020 nM | 0.979 | > 10200 nM | 0.954 | > 20000 nM |
| ALL-PO (lymphoblastic leukaemia, suspension) | 0.912 | > 16000 nM | 0.385 | 148 nM | 0.982 | > 1020 nM | 0.971 | > 10000 nM | 0.444 | 11.1 nM | 0.855 | 17300 nM | 0.862 | 1870 nM | 0.956 | > 1280 nM | 0.143 | 4.52 nM | 0.866 | 10100 nM | 0.76 | 7410 nM |
| BC-1 (B-cell lymphoma, suspension) | 0.954 | > 16000 nM | 0.599 | 559 nM | 0.991 | > 1020 nM | 0.942 | > 10000 nM | 0.544 | 20.7 nM | 0.936 | > 20000 nM | 0.991 | > 2000 nM | 0.991 | > 1280 nM | 0.246 | 13.7 nM | 0.87 | 7260 nM | – | – |
| COLO-824 (breast, adherent) | 0.954 | > 16000 nM | – | – | 0.988 | > 1020 nM | 0.986 | > 10000 nM | 0.697 | 57.9 nM | 0.98 | > 20000 nM | 0.982 | > 2000 nM | 0.987 | > 1280 nM | 0.963 | > 1020 nM | 0.949 | > 10200 nM | 0.909 | > 20000 nM |
| DB (B-cell lymphoma, suspension) | 0.968 | > 16000 nM | – | – | 0.982 | > 1020 nM | 0.908 | > 10000 nM | 0.764 | 104 nM | 0.946 | > 20000 nM | 0.906 | > 2000 nM | 0.98 | > 1280 nM | 0.388 | 30.3 nM | 0.947 | > 10200 nM | 0.93 | > 20000 nM |
